This is one part of the list. At the low end of the ranking the order means little.

This assay deals with SIX1 homeodomain (reference allele) (UniProt Q15475). Briefly: universal protein binding microarray. The following applies: Universal all-10-mer PBM (8x60K, AMADID 030236), 300 nM GST-tagged protein, Alexa Fluor 488 anti-GST; buffer, salt, pH and temperature not stated; high values mean tight binding; most listed sequences are background and not binding sites; double strand, one strand shown.
ATGTCCTC: the binding signal was -0.0138 E-score.

Take CGGGACCA: the binding signal was -0.372 E-score.

GCAATCCC: the binding signal was 0.136 E-score.

Turning to ACCCTAGC, the binding signal was -0.00779 E-score.

As for AGTGGCGG, the binding signal was -0.0833 E-score.

Regarding AGACGACG, the binding signal came out at 1e-05 E-score.

As for CTCGTCAG, the binding signal is -0.0978 E-score.

With CTTGGCCA, the binding signal is -0.16 E-score.

For the sequence CAACGCCC, the binding signal was -0.0301 E-score.

Turning to CGTTGGTC, the binding signal was -0.162 E-score.

On to ACGACGCG, for which the binding signal is -0.227 E-score.

In the case of AAGTCGCA, the binding signal was -0.113 E-score.

For CTAGCGTA, the binding signal is -0.0947 E-score.

ACTATAGT: the binding signal was 0.0548 E-score.

On to ATTCACCG, for which the binding signal was -0.12 E-score.

On to GTCTAATA, for which the binding signal came to 0.0935 E-score.

As for CCAACGTC, the binding signal is -0.118 E-score.

Consider AAGGAGAA, for which the binding signal was -0.0314 E-score.

Regarding ACAACCCA, the binding signal was -0.0153 E-score.

On to GTAACTGA, for which the binding signal was -0.246 E-score.

ATGTACGA: the binding signal was 0.148 E-score.

In the case of CCTTGCAC, the binding signal is -0.104 E-score.

Turning to CCACCTCA, the binding signal was -0.158 E-score.

Regarding CGAATTTA, the binding signal is -0.0905 E-score.

For the sequence GGGTTAAA, the binding signal came out at 0.116 E-score.

Turning to ACGCTCAC, the binding signal was -0.0572 E-score.

Consider GGACGGGA, for which the binding signal is -0.0692 E-score.

In the case of CGTCAAGC, the binding signal was -0.097 E-score.

For CATGCACG, the binding signal is -0.0192 E-score.

As for AAATCGTA, the binding signal was -0.0165 E-score.

Regarding TTTCCAAA, the binding signal is -0.223 E-score.

In the case of TATACATA, the binding signal is 0.246 E-score.

For the sequence ACTAGGTA, the binding signal is -0.0378 E-score.

With ATATATAT, the binding signal amounted to 0.336 E-score.

For the sequence TGAGAACA, the binding signal was -0.00591 E-score.

For the sequence AATGGCCC, the binding signal was -0.33 E-score.

Take ACGGGGCT: the binding signal was -0.0181 E-score.

AACAGCTT: the binding signal was -0.305 E-score.

Regarding TAGTCGAA, the binding signal was -0.115 E-score.

As for TCCCACCA, the binding signal is -0.0654 E-score.

For CGGAGGGC, the binding signal is -0.0865 E-score.

As to AGGTGAAT, the binding signal is -0.063 E-score.

As to ATGGCTTG, the binding signal is -0.00628 E-score.

In the case of GGGTGTGA, the binding signal is 0.158 E-score.

Regarding AATAGTCT, the binding signal was -0.15 E-score.

As for ACAAGTCA, the binding signal was -0.241 E-score.

For ACATCCGT, the binding signal is -0.109 E-score.

Turning to CACTATAC, the binding signal was determined as 0.203 E-score.

For CCACGCCG, the binding signal was -0.15 E-score.

Take CGGGGCCA: the binding signal came to 0.0671 E-score.

On to CTGTAACC, for which the binding signal is -0.117 E-score.

For TCCGGCAA, the binding signal was -0.0691 E-score.

AAGACCCA: the binding signal was -0.192 E-score.

On to CGACCCCG, for which the binding signal was determined as 0.139 E-score.

Turning to CTCGGAAG, the binding signal was 0.0342 E-score.

Take AAGTCCCG: the binding signal is -0.168 E-score.

Consider AAACTTAA, for which the binding signal is -0.213 E-score.

CAAGGGAG: the binding signal was 0.0302 E-score.

Turning to AAACAAGA, the binding signal turned out to be 0.0036 E-score.

As to CGAAACAC, the binding signal is -0.0766 E-score.

ATCCAGCA: the binding signal came to 0.198 E-score.

As to GAGAAGCC, the binding signal came to 0.0549 E-score.

Consider GCGGCCGA, for which the binding signal was -0.1 E-score.

With GATAAACA, the binding signal was -0.0822 E-score.

In the case of AGTTCCAG, the binding signal was -0.179 E-score.

Turning to CGCGATAG, the binding signal was determined as 0.199 E-score.

Turning to AAGATGTG, the binding signal is -0.111 E-score.

Regarding CGTGGATA, the binding signal was 0.362 E-score.

For the sequence AAGGGGTG, the binding signal is -0.0211 E-score.

Regarding TATTGGGA, the binding signal came out at 0.135 E-score.

On to TACATGCA, for which the binding signal was -0.0231 E-score.

In the case of CTGTTCGA, the binding signal is -0.153 E-score.

In the case of AAACGCCC, the binding signal was -0.00304 E-score.

As for CCTGATTC, the binding signal worked out at 0.0735 E-score.

With GAACACAA, the binding signal is 0.000545 E-score.

Regarding CATCAGCG, the binding signal was determined as 0.0156 E-score.

For the sequence AAGAACGA, the binding signal amounted to 0.0109 E-score.

For CCATTTTA, the binding signal is -0.124 E-score.

As for GACGCTTA, the binding signal is -0.0969 E-score.

As for GGAGGCTA, the binding signal was 0.0449 E-score.

For the sequence AAATTCAT, the binding signal is -0.125 E-score.

Turning to CTCGGAGC, the binding signal is -0.0996 E-score.

In the case of AATATGCG, the binding signal turned out to be 0.171 E-score.

AAGGCCTG: the binding signal was -0.366 E-score.

Turning to CCGCTGAA, the binding signal was -0.156 E-score.

With CTAAGTAA, the binding signal was -0.201 E-score.

For ATTTGGTA, the binding signal is 0.0623 E-score.

For CCTGGACC, the binding signal is -0.149 E-score.

For the sequence CAAGGGGA, the binding signal was 0.165 E-score.

For the sequence AAAGATGA, the binding signal is 0.00316 E-score.

For GAGTGCAA, the binding signal was -0.0602 E-score.

Regarding AATAAGCT, the binding signal is -0.0744 E-score.

ACGGGAGA: the binding signal is -0.128 E-score.

As to GCCCTCGA, the binding signal is -0.0358 E-score.

Consider GGCCAACA, for which the binding signal was -0.18 E-score.

As for CCAAACCC, the binding signal was found to be 0.0528 E-score.

Take CTCATATC: the binding signal was determined as 0.31 E-score.

Consider CGCCAAAC, for which the binding signal is -0.214 E-score.

For the sequence CACTAAAA, the binding signal was -0.18 E-score.

For the sequence CAAGGAAA, the binding signal was -0.0985 E-score.

For CTTGATCC, the binding signal was 0.361 E-score.

As for ACTTGCGA, the binding signal was -0.0991 E-score.

For TCCGTCAA, the binding signal was -0.119 E-score.

Take GTCGTGAA: the binding signal was -0.133 E-score.

Turning to ACGTCCTG, the binding signal is -0.152 E-score.

AATGTTAC: the binding signal is -0.273 E-score.

For the sequence GTATAATA, the binding signal stood at 0.365 E-score.

Regarding ATAATTTC, the binding signal was -0.223 E-score.

As to AAGTACTC, the binding signal was -0.0947 E-score.

Turning to ACGATTTG, the binding signal is -0.168 E-score.

In the case of AATAGGCT, the binding signal was -0.00546 E-score.

As for CCGGATGA, the binding signal is 0.275 E-score.

For ACGGTGTG, the binding signal is 0.101 E-score.

In the case of GAAGCGTC, the binding signal is -0.271 E-score.

As for CCTTTCGC, the binding signal is -0.127 E-score.

Consider GCGGTTTA, for which the binding signal is -0.172 E-score.

In the case of CAACGGTA, the binding signal was 0.077 E-score.

Take GAGGACTC: the binding signal is -0.117 E-score.

Consider ATCACGTA, for which the binding signal was determined as 0.214 E-score.

In the case of CATAGGTC, the binding signal came to 0.0275 E-score.

As to ACTTAATA, the binding signal amounted to 0.143 E-score.

As for CTAAAGGA, the binding signal was -0.0595 E-score.

As for CAATGAGC, the binding signal is -0.0869 E-score.

Turning to ATGCGAAT, the binding signal is -0.033 E-score.

On to AGGCCCAA, for which the binding signal is -0.288 E-score.

In the case of AACTGGGA, the binding signal was 0.0601 E-score.

Take CTTCATGC: the binding signal is -0.152 E-score.

For ACATAGAG, the binding signal was -0.138 E-score.

For AAAATGAC, the binding signal was -0.206 E-score.

On to CTGGACCA, for which the binding signal was -0.16 E-score.

For GCTGTCGA, the binding signal was -0.138 E-score.

Turning to ATAGTTCC, the binding signal is -0.0942 E-score.

Take AGAGTGAC: the binding signal was -0.205 E-score.

Turning to GAGGATAA, the binding signal turned out to be 0.278 E-score.

On to CGCGATTC, for which the binding signal is 0.0204 E-score.

Take CACCCAGG: the binding signal turned out to be 0.0696 E-score.

On to CACCGCGG, for which the binding signal was determined as 0.28 E-score.

For ATGCAGTG, the binding signal was found to be 0.153 E-score.

For the sequence CCGTTATA, the binding signal came out at 0.117 E-score.

In the case of AGACTAGG, the binding signal was -0.186 E-score.

As for ATCAGGTG, the binding signal was found to be 0.25 E-score.

For the sequence CTTTTATA, the binding signal turned out to be 0.0197 E-score.

As for TAGGCCTA, the binding signal came out at 0.00183 E-score.

In the case of ACACTATA, the binding signal amounted to 0.132 E-score.

CACCAATG: the binding signal was determined as 0.00865 E-score.

Consider ACTCTGCG, for which the binding signal is -0.0297 E-score.

Consider ACACAGCG, for which the binding signal was -0.046 E-score.

As to ACCCGAGC, the binding signal came out at 0.11 E-score.

For ACAGAACG, the binding signal was -0.0976 E-score.

With AGCCTCCT, the binding signal was -0.0223 E-score.

Regarding CGCGGACA, the binding signal is -0.162 E-score.

On to GGAGAGCC, for which the binding signal came to 0.0514 E-score.

For the sequence CCGGAGTA, the binding signal worked out at 0.089 E-score.

As for CGCCGCCA, the binding signal is -0.148 E-score.

Regarding AAAGTTGT, the binding signal was -0.247 E-score.

As for AAGTCCTA, the binding signal was -0.179 E-score.

As for CGAATCGA, the binding signal was 0.182 E-score.

On to TTCCCCAA, for which the binding signal is -0.0359 E-score.

As to CATGGGAG, the binding signal is 0.0691 E-score.

For CAAAGCAA, the binding signal was -0.197 E-score.

As for CCGTGCAC, the binding signal amounted to 0.00664 E-score.

Consider CTAAGGAG, for which the binding signal amounted to 0.0137 E-score.

Take AAAAGCTC: the binding signal was -0.179 E-score.

ATCTCTTA: the binding signal worked out at 0.208 E-score.

Regarding ACAGCAAG, the binding signal worked out at 0.0276 E-score.

As to CATCCGCC, the binding signal worked out at 0.237 E-score.

CGCGCCAG: the binding signal is -0.114 E-score.

Consider AAGGGGAC, for which the binding signal is -0.0872 E-score.

Regarding GTTGGTTA, the binding signal was 0.0201 E-score.

Take ACGCACCA: the binding signal was -0.122 E-score.

On to ACTAATAA, for which the binding signal was -0.068 E-score.

On to CGTTCATA, for which the binding signal was -0.0851 E-score.

These data come from PMC10668032.
